Experimental data reported in the supplement of paper PMC10126150.
Sequences with one replicate were seen in a single cluster, so their values are uncertain.

System: ATP
Assay: switch fluorescence ratio, 500 uM ATP over buffer (Cy3 cluster intensity, sum of 5 cycles each) (fold (ratio)); higher = stronger signal-on switching upon ATP binding; sequences stand for … in TCGTCGGCAGCGTCAGATGTGTATAAGAGACAGTTTTTTTTTTTTTTTTTTTTTTTTT…TC
Conditions: aptamer strand: ATP DNA aptamer (quencher-CACCTGGGGGAGTATTGCGGAGGAAGG + anchor), 100 nM annealed; ATP concentration: 500 uM; one replicate
Summary of the method: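 Per cluster, summed Cy3 intensity from the target cycles was divided by that from the buffer cycles to give the fluorescence ratio, then averaged per switch-domain sequence. Clusters outside 100-1000 RFU were excluded. The Cy3-labelled switching-strand clusters, on a modified Illumina MiSeq flow-cell, were annealed to 100 nM quencher-labelled ATP aptamer and imaged in selection buffer, then after 15 min with 500 uM ATP at 22 °C, for five cycles with NaOH stripping and re-annealing between them.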
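Also: ATP exposure 15 min at 22 °C before imaging.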

Sequence	switch fluorescence ratio
TTTCTGCATA	1.98
ATCAATTATG	1.04
ATTAGCCTCT	0.953
GTGCTAGCAC	1.05
GTTTTATGGC	1.02
GGGAACGAGA	0.971
AAAAAATGAT	1.03
TAAAATAGAA	0.954
ACGCACGTTC	1.47
GGAACCATGA	1.01
GTTTGTGATT	0.974
GTATCAGGAC	1.1
ACACGCCGT	1.05
GATCGCATGG	0.984
CTCCATGGAC	1.49
CTGATTATAG	1
GTCATAAGCG	1.01
GGGTACTGCC	1.02
CTGGTTACCG	1.07
ACAGACCGCC	1.3
TTGTTGGCAT	0.946
CGTGTTCAGC	1.06
TGAGGAGGCT	0.979

Sequence	switch fluorescence ratio
CTGCGCTACC	3.48
TGTGACGTCG	1.06
AGCGGGACGC	0.982
GGTGTTTAGT	1.08
GTAGGGCTGC	0.937
AAGCATGGGG	1.01
TAGACCCTGA	1
GGGGCCGGAC	0.908
TCAGGGACTG	0.996
TGCAAAGGCG	1.02
CCCTGTTCCA	0.981
AGTGCCAAGG	1.03
TATCTTTTGC	1.03
TAAGGTTTCA	0.97
CCTCAGGGCT	1.23
AGGTCGGCGC	1.02
AAAGTACCTC	1.09
GCTTAAATTC	1
ATAGCCTTCG	1.37
TTTGAAATTC	1.16
TTGCCTAAGT	0.989
TGGCGCGGAG	1.01
TATCCTAGGT	1.02

Sequence	switch fluorescence ratio
AACATACTGT	1.11
ATGATAATTC	1.04
TCGGTCAGGG	1.04
TATGTGGTTC	0.991
TTTCTCGACG	1
CCCCAGCATA	6.13
GTATCTACTG	0.999
CGTACAGTGT	0.978
AACCAGAACA	0.973
TTCAGGGCAT	0.976
TTAGTTACAT	1.07
CGAGAACATA	0.982
AGTCTGTTTT	1
TCCATCCATG	1.03
CATAATGAAC	1.01
TGCAAAAAGT	1.02
TCCTTAGGGT	0.987
ACACAAGTTT	0.976
TAATTGTGCC	1
GTATATGTGT	0.983
GGGTAACGGG	0.979
AAATTCGAGC	1.03
TTCTTAGGTG	1.07

Sequence	switch fluorescence ratio
CTGAGATGTA	1.01
TGCTGTAGTA	1.02
TATGGAGTCT	1.02
GGGGTTTCAA	0.97
TGAACTGGTT	0.966
GATCAACCAG	1.05
GTTGGGACTC	1.01
CACTACCCGT	1.13
CGGTTAAGTC	0.952
CATACAAGGA	0.99
TGGCCTCCCA	1.03
ACCACTGGTG	1.04
TCAAACTTGT	0.96
GGTCGATAGA	1
CAGTGGGAGT	1.01
CACGAGTACA	1.16
AAGAAGACCG	0.97
TTTCTACAAA	1.02
CTAAGCTGGT	1.02
ATGGCTCTAT	0.98
CATCGGGTAT	1.02
GATCCGGGCC	1.01
ACTTCCGAGG	4.53

Sequence	switch fluorescence ratio
AAAAGACTTA	1.02
AGAGGTAGTG	0.974
AGGAATCACT	1.02
TCGGGATTAA	0.986
ATGCTCGTTA	1.02
TATTATTTAA	1.03
GGAATAGAGC	1.01
CTTTAACCTT	1.59
CTACCAGGGG	1.41
TCCTAGAATG	1.02
AAAATCCCGT	1.02
TCCAACCCCT	1.02
TTCTTCACTG	1.01
GCAAAGTCTT	1.02
GTCGTAAACG	1.01
GATTTAGGGT	0.975
GGGACGCATT	4
AGTAATGCTC	1.47
CAAAAACCAC	1.08
GTGAGGGCAC	1.01
GCTGGCTGGA	0.999
CTCATGCGA	2.2
TGTTTTGGAT	0.983

Sequence	switch fluorescence ratio
TATGGTCCGG	0.991
CTTAGACAGA	0.938
CGCGCCATGG	1
GGATTGATGA	0.935
ATGTTCAT	1.03
GCTACGCCGG	1.03
CATATCGCTG	1.01
GGGAGCAAGT	1.05
TGCTATAGC	1.01
GGCAGTTGAG	1.04
GGAGTAGGGC	0.887
CGGTAAAAG	0.99
GTGTCTAGTG	1.03
ACGCGGTAGT	1.03
GTTCGCTGTG	0.956
AAGTTCAGGT	1.04
TAAAAGGTAT	1.04
TTGGTCTG	0.989
AAAAATGATT	0.989
TCTACGGCTT	1.08
CAAACGTTGG	1.03
GGAAGCATAG	1.22
AAAAAGTACA	1.07

Sequence	switch fluorescence ratio
CACATTTGGT	1.02
CGAAGTTAAC	1.06
GTGGTACAGT	1
GTGAGCCGAT	0.971
ACTAGTGGG	1
TACAATCAGA	0.998
AAAAGAACCG	1.08
AAACTTTGGG	1
CGCTCTCGAA	0.94
TGGGAGGCCC	1.06
TTCCACATTC	1.26
CACCGACGCC	2.33
GTGCCGAGGG	1.01
TGTTGCTCAG	0.987
GCCGTTAAGC	0.996
GCTTGTGAGA	1.01
AGTTATGGTG	0.972
ATTTGCAGAA	0.994
ACATAGTTCA	1
